# Results as given in PubChem BioAssay AID1347165 (National Center for Advancing Translational Sciences (NCATS), 2019).
# Screen size: about 220,000 compounds; about 5,700 (2.6%) were called active. This list was built around the results that the source calls inconclusive (neither active nor inactive); the mix of calls is not that of the screen. Calls follow the shape of the dose curve; as a rule, active = well fitted inhibition curve with a large enough effect; inconclusive = small, poorly fitted or top-dose-only effect; inactive = no such curve, though single readings can be large or run the other way. A potency beside an inconclusive call is a rough fit, not a confirmed value.
# Target: Lysine-specific demethylase 5B (Homo sapiens) (UniProt Q9UGL1)
# Chain of UniProt Q9UGL1 (Q9UGL1 whole entry, looked up): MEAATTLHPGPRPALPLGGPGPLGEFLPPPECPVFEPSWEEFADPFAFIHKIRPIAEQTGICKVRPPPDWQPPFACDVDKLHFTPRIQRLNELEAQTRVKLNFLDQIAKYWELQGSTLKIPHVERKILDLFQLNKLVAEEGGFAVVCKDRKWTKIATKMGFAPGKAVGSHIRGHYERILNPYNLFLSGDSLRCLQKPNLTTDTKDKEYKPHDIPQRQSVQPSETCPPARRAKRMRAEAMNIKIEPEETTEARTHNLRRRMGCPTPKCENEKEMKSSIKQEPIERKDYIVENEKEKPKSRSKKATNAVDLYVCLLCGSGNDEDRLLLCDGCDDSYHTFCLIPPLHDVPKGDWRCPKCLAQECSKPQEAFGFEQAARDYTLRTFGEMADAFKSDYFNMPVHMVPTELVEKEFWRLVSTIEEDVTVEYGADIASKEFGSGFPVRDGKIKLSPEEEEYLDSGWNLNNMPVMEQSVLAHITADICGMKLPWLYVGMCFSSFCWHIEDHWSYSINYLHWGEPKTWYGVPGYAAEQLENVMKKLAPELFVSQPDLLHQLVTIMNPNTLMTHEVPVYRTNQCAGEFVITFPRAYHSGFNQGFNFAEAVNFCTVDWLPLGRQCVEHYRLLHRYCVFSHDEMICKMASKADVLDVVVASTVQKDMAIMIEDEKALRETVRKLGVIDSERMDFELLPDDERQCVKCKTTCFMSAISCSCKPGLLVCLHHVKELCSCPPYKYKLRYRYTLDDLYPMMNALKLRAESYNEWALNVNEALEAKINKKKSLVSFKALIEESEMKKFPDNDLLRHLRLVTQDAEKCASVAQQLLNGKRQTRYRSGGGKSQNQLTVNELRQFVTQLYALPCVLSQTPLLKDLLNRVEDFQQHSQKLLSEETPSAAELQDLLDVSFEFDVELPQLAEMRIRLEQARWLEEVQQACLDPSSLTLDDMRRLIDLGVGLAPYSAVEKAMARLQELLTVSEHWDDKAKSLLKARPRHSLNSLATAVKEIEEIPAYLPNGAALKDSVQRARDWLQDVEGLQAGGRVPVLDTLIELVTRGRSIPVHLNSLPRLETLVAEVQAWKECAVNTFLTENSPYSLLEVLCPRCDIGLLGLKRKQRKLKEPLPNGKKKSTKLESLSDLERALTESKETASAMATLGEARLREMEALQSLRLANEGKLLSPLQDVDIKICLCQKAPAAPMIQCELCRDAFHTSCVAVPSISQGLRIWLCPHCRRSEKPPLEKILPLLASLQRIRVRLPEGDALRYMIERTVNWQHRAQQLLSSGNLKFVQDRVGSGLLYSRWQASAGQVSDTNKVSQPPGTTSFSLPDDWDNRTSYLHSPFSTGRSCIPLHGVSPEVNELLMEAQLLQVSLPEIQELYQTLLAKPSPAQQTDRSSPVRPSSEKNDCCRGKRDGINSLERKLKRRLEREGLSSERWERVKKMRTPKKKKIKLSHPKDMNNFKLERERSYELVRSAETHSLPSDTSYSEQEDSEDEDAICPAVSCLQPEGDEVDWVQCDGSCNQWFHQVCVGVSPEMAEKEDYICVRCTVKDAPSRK
# Assay: Primary screen for KDM5B Histone Demethylases FDH-coupled qHTS; also: nearly all actives have a fitted effect of over 70% in size
# Conditions: FDH-coupled NADH fluorescence (FDH is formaldehyde dehydrogenase); series mostly up to 57.7 µM
# Method in brief: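 qHTS format, multiple compound concentrations. Buffer 50 mM HEPES pH 7.5/0.01% Tween-20; 200 nM KDM5BΔAP final; 10 min compound preincubation; substrate-mix levels 12.5 µM peptide, 25 µM α-KG, 0.25 mM NAD⁺; 30 min RT; ΔRFU.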
# Potency is read from the fitted curve at half-maximal effect; tags tell the direction and shape of the fitted curve.
row,SMILES,Potency
1,O=C(COC(=O)c1cc(-c2cccs2)nc2ccccc12)NCC(F)(F)F,"inconclusive: 28.2 µM [inhibitor, partial curve, poor fit]"
2,Cc1ncsc1CCCNc1nc(-c2ccccn2)nc2c1CCNCC2,inactive
3,COc1cc(C#N)ccc1OCc1ccccc1,inactive
4,O=C(CSc1ncnc2nc[nH]c12)NCc1cccc(Cl)c1,inactive
5,COc1cccc(-c2n[nH]c3c2CN(C(=O)c2oc(C)cc2C)CC3)c1,"inconclusive: 3.98 µM [inhibitor, single point]"
6,Cc1cc(F)ccc1NC1CN(C(=O)OC(C)(C)C)C1,inactive
7,Cc1cc2cccc(C(=O)N3CCC(Cn4cc(CO)nn4)CC3)c2o1,"inconclusive: 25.1 µM [inhibitor, partial curve, poor fit]"
8,NCc1cccc(-c2cccc(O)c2)c1,"inconclusive: 100 µM [inhibitor, partial curve, poor fit]"
9,COC(=O)C1CN(C(=O)COc2ccc(Cl)c(C)c2)c2ccccc2O1 (configuration not stated),"inconclusive: 22.4 µM [inhibitor, single point]"
10,O=C(CCc1ncc(-c2ccc(Cl)cc2Cl)o1)NCC1CCCO1 (configuration not stated),inactive
11,CCCCN(C)CC(O)Cn1cc(/C=C/C(=O)c2ccc(OC)c(OC)c2)c2ccccc21 (configuration not stated),"inconclusive: 31.6 µM [inhibitor, single point]"
12,CCCn1ccc2c(OCC(=O)NCc3ccc(F)cc3)cccc2c1=O,"inconclusive: 35.5 µM [inhibitor, partial curve, poor fit]"
13,Cc1ccc(-c2nc(S(=O)(=O)c3ccc(Cl)cc3)c(N3CCCCC3)o2)cc1,"inconclusive: 28.2 µM [inhibitor, partial curve, poor fit]"
14,CCOC(=O)N1CCN(C(=O)[C@H](C)NC(=O)c2cc3cc(OC)ccc3n2C)CC1,"inconclusive: 35.5 µM [inhibitor, partial curve, poor fit]"
15,CC(=O)N1CCC(C(=O)NCc2ncc(-c3ccccc3)o2)CC1,inactive
16,COc1cccc(CCC(=O)N2CCC3(CC2)N=C(c2ccccc2)NO3)c1,inactive
17,O=C(c1cnccn1)N1CCC([C@@H]2CNC[C@H]2CO)CC1,active: 14.1 µM
18,COc1ccc(NC(=O)Cc2csc(COc3cccc(C)c3)n2)cc1OC,"inconclusive: 17.8 µM [inhibitor, partial curve, poor fit]"
19,COc1ccc(NC(=O)CN2C(=O)S/C(=C/c3cccn3-c3ccc(C(=O)O)cc3)C2=O)cc1,"inconclusive: 39.8 µM [inhibitor, single point]"
20,Cc1ccc(C)c(S(=O)(=O)c2nnn3c2nc(NCc2cccs2)c2sccc23)c1,"inconclusive: 35.5 µM [inhibitor, partial curve, poor fit]"
21,COc1ccc2c(c1)c1c(c(=O)n(-c3ccccc3)c(=O)n1CC(=O)Nc1ccc(F)cc1)n2C,"inconclusive: 28.2 µM [inhibitor, partial curve, poor fit]"

row,SMILES,Potency
1,Cc1cccnc1CN1C[C@@H](F)[C@@H](OCc2nc3ccccc3n2C)C1,"inconclusive: 35.5 µM [inhibitor, partial curve]"
2,CCCNC(=O)C1CCc2ncc(-c3ccc(OC)cc3)n2C1 (configuration not stated),"inconclusive: 20 µM [inhibitor, single point]"
3,Cc1nc2scc(CC(=O)NC(C)C)n2c(=O)c1-c1cc(C)n(-c2cccc(F)c2)n1,"inconclusive: 17.8 µM [inhibitor, partial curve, poor fit]"
4,Cc1c(-c2ccccc2)c(=O)oc2c(CN3CCN(C)CC3)c(O)ccc12,"inconclusive: 14.1 µM [inhibitor, partial curve, poor fit]"
5,O=C(C1CCCC1)N1CCC2(CC1)NCc1ccccc1NC2=O,"inconclusive: 112 µM [inhibitor, single point]"
6,CCN1c2cc(C(=O)Nc3cccc(OC(F)(F)F)c3)ccc2C(=O)N2CCCCCC21 (configuration not stated),"inconclusive: 28.2 µM [inhibitor, partial curve, poor fit]"
7,COC(=O)c1ccccc1NC(=O)NCc1nc(-c2ccc(C)cc2)oc1C,"inconclusive: 25.1 µM [inhibitor, single point]"
8,Cc1ccc(OCC(=O)Nc2c(NC3CCCC3)c3ccccc3oc2=O)cc1,inactive
9,Fc1cccc(Cl)c1CNc1n[nH]c(-c2ccco2)n1,"inconclusive: 15.8 µM [inhibitor, partial curve, poor fit]"
10,Cc1ccc(Cl)cc1N1CCN(C(=O)c2cccn2-c2nnc(N3CCCCC3)s2)CC1,inactive
11,CN1CCN(c2cc(=O)c3ccnc(-c4ccnn4C)c3o2)CC1,active: 39.8 µM
12,O=C(NCc1ccccc1Cl)c1cccn1-c1nnc(N2CCCCC2)s1,"inconclusive: 5.01 µM [inhibitor, full curve, poor fit]"
13,COCCn1nnnc1C(c1ccc(Cl)cc1)N1CCN(C(=O)c2ccco2)CC1 (configuration not stated),"inconclusive: 28.2 µM [inhibitor, single point]"
14,COc1ccc2[nH]c(C(=O)N/N=C/c3cc(OC)c(OC)c(OC)c3)cc2c1,"inconclusive: 25.1 µM [inhibitor, partial curve, poor fit]"
15,c1ccc(-c2nc(-c3ccc4c(c3)OCCCO4)cs2)nc1,"inconclusive: 28.2 µM [inhibitor, partial curve, poor fit]"
16,CCc1nnsc1C(=O)NCC1(c2ccc(F)cc2)CCCC1,inactive
17,O=C1NC[C@@H](CCC(=O)N2CCc3ccccc32)N2C[C@@H](NCc3ccc(CO)o3)C[C@@H]12,"inconclusive: 17.8 µM [inhibitor, partial curve, poor fit]"
18,COc1ccc(C(=O)N[C@H]2C[C@@H](Cc3cc(CN4CCOCC4)on3)C2(C)C)cc1,inactive
19,CCCCCCNC(=O)c1cc(-c2ccccc2)nc2ccccc12,"inconclusive: 39.8 µM [inhibitor, single point]"
20,O=C(CCn1c(=O)c2cccn2c2cccnc21)NCc1ccccc1Br,"inconclusive: 35.5 µM [inhibitor, single point]"
21,CC(C)OCCCNC(=O)c1cc(C2CC2)nc2ccccc12,inactive
